Some of the results follow. The main result of the screen is listed elsewhere. These columns were measured beside it and carry no call. Numbered stars: 1 amine (or outer) side, 2 acyl side, 3 side chain; on linkers, the order of the positions; unused ones are H or OH. Bridge positions count the residues as written; N and C are the ends. Peptide text beside a SMILES is read from it. X4 = O=C(CCC[*:2])[*:1]

This passage reports activity change, negative = inhibition results from PubChem BioAssay AID1745853 (National Center for Advancing Translational Sciences (NCATS), 2022).

Common to all, as to assay: Primary Screen for Target Class Profiling of Small Molecule Inhibitors of Methyltransferases
Test [1] concerns the target Glycine N-methyltransferase (Homo sapiens) (UniProt Q14749). The note with it: purified enzyme, MTase-Glo SAH luminescence; measured here: GNMT inhibition; at 40 µM; stronger effect = lower value. An outline of the steps:
(§1)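 Each enzyme was reacted with SAM and its substrate, with compounds tested once at 40 uM; SAH formed was read by MTase-Glo luminescence.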

Test [2] addresses Guanidinoacetate N-methyltransferase (Homo sapiens) (UniProt Q14353). The conditions noted are these: purified enzyme, MTase-Glo SAH luminescence; measured here: GAMT inhibition; at 40 µM; stronger effect = lower value. The method in brief:
as §1

Test [3] has as its target Histamine N-methyltransferase (Homo sapiens) (UniProt P50135). The conditions noted are these: purified enzyme, MTase-Glo SAH luminescence; measured here: HNMT inhibition; at 40 µM; stronger effect = lower value. The method in brief:
as §1

In test [4] the target is Nicotinamide N-methyltransferase (Homo sapiens) (UniProt P40261). The note with it: purified enzyme, MTase-Glo SAH luminescence; measured here: NNMT inhibition; at 40 µM; stronger effect = lower value. An outline of the steps: as §1
In test [5] the target is Phenylethanolamine N-methyltransferase (Homo sapiens) (UniProt P11086). The conditions noted are these: purified enzyme, MTase-Glo SAH luminescence; measured here: PNMT inhibition; at 40 µM; stronger effect = lower value. An outline of the steps: as §1
% is scaled to controls: 0 for no effect and ±100 for the full control effect.

Turning to `CCOc1ccc(N2C(=O)c3cc(C(C)(C)C)nn3CC2(C)C(=O)NC2CCCCC2)cc1` (stereo not given), the activity change, negative = inhibition is -4.78% in test [1]; -2.41% in test [2]; -1.04% in test [3]; 4.77% in test [4]; -0.729% in test [5].

As for `CCn1ccnc1CN1CCC(Oc2ccccc2OC)(C(=O)O)CC1`, the activity change, negative = inhibition was -2.58% in test [1]; -9.33% in test [2]; -2.56% in test [3]; -8.87% in test [4]; -4.1% in test [5].

In the case of `CC(=O)c1ccc(C(=O)N[C@H]2COC[C@H]2Cc2cc(C)no2)s1`, the activity change, negative = inhibition was -3.47% in test [1]; -3.9% in test [2]; -1.86% in test [3]; -3.7% in test [4]; -0.241% in test [5].

Consider `COCCN1C(=O)c2c(-n3cccc3)c3cc(C)ccc3n2CC1(C)C(=O)NC1CCCCC1` (stereo not given), for which the activity change, negative = inhibition was -6.49% in test [1]; 0.854% in test [2]; -5.23% in test [3]; -18.5% in test [4]; -6.2% in test [5].

Turning to `Cc1cc2c(c(=O)o1)C=C1CC[C@H]([C@H](C)Cn3cnc(=N)c4[nH]cnc43)C[C@@H]1O2`, the activity change, negative = inhibition in test [1] is -28.4%; in test [2], 0.652%; in test [3], -40.3%; in test [4], -47.1%; in test [5] it was -15.7%.

`O=C(NCCC1=CCCCC1)c1c(-c2cncnc2)cc(=O)n2c1CCCC2`: the activity change, negative = inhibition in test [1] is -3.62%; in test [2] it was -2.47%; in test [3] it was -5.01%; in test [4], -7.36%; in test [5] it was -19.1%.

For `Oc1cc(O)c2c(c1)O[C@H](c1ccc(O)c(O)c1)[C@@H](O)C2`, the activity change, negative = inhibition is -15.2% in test [1]; 6.65% in test [2]; -1.14% in test [3]; -3.64% in test [4]; 5.55% in test [5].

For the compound `CCc1ccccc1N1C(=O)c2cc(C(C)(C)C)nn2CC1(C)C(=O)NCc1ccccc1` (stereo not given), the activity change, negative = inhibition in test [1] was 3.62%; in test [2] it was 1.1%; in test [3] it was 4.15%; in test [4] it was 3.97%; in test [5], -2.6%.

Consider `Cc1cc(C)cc(N2C(=O)c3cc(C(C)(C)C)nn3CC2(C)C(=O)NCc2ccccc2)c1` (stereo not given), for which the activity change, negative = inhibition in test [1] is 0.779%; in test [2] it was 4.88%; in test [3], 2.71%; in test [4], -10.5%; in test [5], -2.79%.

In the case of `C=CC(=O)N1CC(N2CCN(C(=O)CNc3cc(C4CC4)c(Cl)cc3O)CC2)C1`, the activity change, negative = inhibition in test [1] was -4.24%; in test [2] it was -1.34%; in test [3] it was 2.38%; in test [4], -14.9%; in test [5], -0.249%.

For the compound `CCC1c2ccc(C)n2CCN1C(=O)NCc1ccc(F)cc1` (stereo not given), the activity change, negative = inhibition in test [1] was -3.5%; in test [2], 2.75%; in test [3] it was -4.88%; in test [4] it was -1.32%; in test [5], -7.67%.

With `CCC(C)NC(=O)c1ccc2c(=O)n(C)c3nnc(SCc4ccccc4)n3c2c1` (stereo not given), the activity change, negative = inhibition in test [1] was -0.345%; in test [2], 2.38%; in test [3], 0.549%; in test [4] it was 0.952%; in test [5] it was -5.4%.

As to `Cc1ccc(Cn2c(=O)c3ccc(C(=O)NC4CCCC4)cc3n3c(=O)[nH]nc23)cc1`, the activity change, negative = inhibition in test [1] is -8.99%; in test [2], 1.59%; in test [3] it was -13.6%; in test [4], -11.8%; in test [5] it was -10.7%.

Consider `CCCC1c2cccn2CCN1C(=O)Nc1ccccc1CC` (stereo not given), for which the activity change, negative = inhibition in test [1] is 2.93%; in test [2], 1.52%; in test [3], -22%; in test [4] it was 4.14%; in test [5], 6.69%.

With `CN1C(=O)c2cc(C(=O)NCCCN3CCCC3)nn2CC1(C)C(=O)NC1CCCCC1` (stereo not given), the activity change, negative = inhibition in test [1] is 5.37%; in test [2], 0.528%; in test [3], -2%; in test [4] it was 3.79%; in test [5] it was 1.28%.

As to `CC(C)NC(=O)C(=O)NCc1cccnc1`, the activity change, negative = inhibition was 3.08% in test [1]; -4.21% in test [2]; -1.83% in test [3]; 2.41% in test [4]; -5.01% in test [5].

As for `CCCC1c2cccn2CCN1C(=O)Nc1cccc(C(F)(F)F)c1` (stereo not given), the activity change, negative = inhibition was -4.68% in test [1]; 4.94% in test [2]; -30.5% in test [3]; -6.29% in test [4]; -1.69% in test [5].

`CN1CC(c2ccccc2)CC2(CCN(C(=O)c3ccccc3)CC2)C1` (stereo not given): the activity change, negative = inhibition in test [1] was -2.69%; in test [2], -0.508%; in test [3], -12.4%; in test [4], -6.38%; in test [5], -2.8%.

Take `O=S(=O)(c1ccccc1)c1nnn2c1nc(N1CCN(Cc3ccccc3)CC1)c1ccccc12`: the activity change, negative = inhibition in test [1] was 3.22%; in test [2] it was 3.54%; in test [3], -0.572%; in test [4] it was 4.07%; in test [5], 1.22%.

For the compound `CC[C@H](C)[C@@H]1NC(=O)[C@H](Cc2ccc(OC)cc2)NC(=O)CCCSC[C@@H](C(=O)N2CCC[C@H]2C(=O)N[C@@H](CC(C)C)C(=O)NCC(N)=O)NC(=O)[C@H](CC(N)=O)NC(=O)[C@H](CCC(N)=O)NC1=O` (Y(Me)IQNCPLG-NH2; linker N-5 via X4), the activity change, negative = inhibition was 5.69% in test [1]; 6.95% in test [2]; 7.05% in test [3]; -7.6% in test [4]; 0.967% in test [5].

Consider `O=C1NC(=O)c2c1c(-c1ccccc1)cc1[nH]c3ccc(O)cc3c21`, for which the activity change, negative = inhibition in test [1] was -57.9%; in test [2] it was -38.8%; in test [3], -53.4%; in test [4] it was -40.6%; in test [5] it was -41.3%.

With `CCn1ccnc1CN(C)Cc1cn(-c2ccccc2C)nc1-c1ccc(OC)c(F)c1`, the activity change, negative = inhibition is 0.05% in test [1]; -1.11% in test [2]; -3.84% in test [3]; -7.37% in test [4]; -14.9% in test [5].

`CCCN1C(=O)c2cc(C(=O)NCc3ccc(SC)cc3)nn2CC1(C)C(=O)NC1CCCC1` (stereo not given): the activity change, negative = inhibition in test [1] is -0.811%; in test [2], 3.01%; in test [3] it was 4.78%; in test [4] it was -0.481%; in test [5], -0.665%.

`O=C(CCc1nnc2n(CCc3ccccc3)c(=O)c3ccccc3n12)NCc1ccccn1`: the activity change, negative = inhibition in test [1] was -3.34%; in test [2], 3.75%; in test [3], 2.85%; in test [4] it was 5.5%; in test [5], -1.33%.

Take `CN(C)CCCN1c2ccccc2Sc2ccc(C(F)(F)F)cc21`: the activity change, negative = inhibition in test [1] was 2.22%; in test [2], 11.7%; in test [3], -4.15%; in test [4], -19.4%; in test [5] it was 6.01%.

As for `COc1ccc(CNC(=O)CC[C@]23CC[C@](C)(O)C[C@H]2C(C)(C)C[C@@H]3NC2CCOCC2)cc1`, the activity change, negative = inhibition in test [1] is -3.4%; in test [2] it was -4.97%; in test [3], -9.28%; in test [4], -8.83%; in test [5], -4.92%.

Take `c1ccc(-c2nc(C3CC3)no2)c(OC2CCNC2)c1` (stereo not given): the activity change, negative = inhibition in test [1] is 0.004%; in test [2] it was 0.628%; in test [3] it was -3.59%; in test [4], -4.56%; in test [5], 0.443%.

As for `O=C1NCc2ccccc2CC12CCN(Cc1ccsc1)C2` (stereo not given), the activity change, negative = inhibition was -12.6% in test [1]; -9.05% in test [2]; -8.08% in test [3]; -25.2% in test [4]; -11.9% in test [5].

Consider `O=C(/C=C\c1ccc(O)cc1)N[C@@H](Cc1ccc(O)cc1)C(=O)O`, for which the activity change, negative = inhibition in test [1] is -0.487%; in test [2], -1.48%; in test [3], 13%; in test [4], -11.5%; in test [5], 4.11%.

`O=C(CCc1ccc2c(c1)OCO2)N[C@H](c1ccccn1)C1CC(O)C1` (stereo not given in full): the activity change, negative = inhibition in test [1] is -0.405%; in test [2], -2.72%; in test [3] it was 0.278%; in test [4] it was -3.83%; in test [5], -2.8%.
